{"source": "the supplement of paper PMC3334620", "note": "Whole data set: some 33,000 sequences, median “E-score (-0.5 to 0.5)” near -0.012, cut for the highest 2% near 0.27. The list shows a part of the results.", "data": [{"molecular_target": "T1, Vhr1 (UniProt P40522)", "T1 sequence": "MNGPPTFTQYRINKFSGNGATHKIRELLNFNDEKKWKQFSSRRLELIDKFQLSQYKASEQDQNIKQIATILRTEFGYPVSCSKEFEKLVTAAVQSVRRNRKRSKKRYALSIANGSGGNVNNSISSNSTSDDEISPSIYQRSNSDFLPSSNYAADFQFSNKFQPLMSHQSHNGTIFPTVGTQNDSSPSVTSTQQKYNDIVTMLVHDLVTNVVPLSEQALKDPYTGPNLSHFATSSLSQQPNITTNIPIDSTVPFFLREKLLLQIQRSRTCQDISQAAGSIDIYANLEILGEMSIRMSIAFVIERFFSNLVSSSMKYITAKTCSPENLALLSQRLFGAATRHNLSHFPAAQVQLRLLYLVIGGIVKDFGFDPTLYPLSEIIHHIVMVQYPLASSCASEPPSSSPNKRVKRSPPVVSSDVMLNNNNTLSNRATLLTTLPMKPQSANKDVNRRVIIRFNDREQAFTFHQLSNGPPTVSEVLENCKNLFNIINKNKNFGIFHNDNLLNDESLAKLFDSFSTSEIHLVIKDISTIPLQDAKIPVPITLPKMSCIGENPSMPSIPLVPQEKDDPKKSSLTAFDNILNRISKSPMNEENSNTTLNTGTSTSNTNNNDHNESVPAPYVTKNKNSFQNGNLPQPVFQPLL", "assay": "PBM E-score (8-mer binding enrichment) (E-score (-0.5 to 0.5)); higher = stronger / more preferred TF binding; most listed sequences are background and not binding sites", "settings": "protein concentration: 200 nM; construct: GST-full length", "procedure,_shortened": "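For each ungapped eight-base word taken together with its reverse complement, the Universal PBM Analysis Suite assigned an E-score. Binding data came from GST-tagged yeast transcription factors, applied at about 100-200 nM, on universal all-10-mer Agilent arrays made double-stranded by primer extension. Fluorescent anti-GST marked bound protein, and scans were normalised with masliner.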", "values": [{"sequence": "TACTTTAA", "PBM E-score": -0.104}, {"sequence": "ACAAGGGG", "PBM E-score": -0.24}, {"sequence": "CAGGCCCC", "PBM E-score": -0.288}, {"sequence": "CCAATATA", "PBM E-score": -0.0864}, {"sequence": "CATTCCGG", "PBM E-score": -0.0365}, {"sequence": "GCCATTAC", "PBM E-score": 0.0967}, {"sequence": "GATTTAAA", "PBM E-score": -0.192}, {"sequence": "CGTCTTGC", "PBM E-score": -0.108}, {"sequence": "GCTTGTTA", "PBM E-score": -0.149}, {"sequence": "GCCCTTTA", "PBM E-score": -0.296}, {"sequence": "AATAAGCT", "PBM E-score": -0.126}, {"sequence": "ACCACCAT", "PBM E-score": 0.246}, {"sequence": "CGGAACCA", "PBM E-score": 0.343}, {"sequence": "CGGCCCAA", "PBM E-score": 0.024}, {"sequence": "ATTGATGA", "PBM E-score": 0.0368}, {"sequence": "GACTAGCC", "PBM E-score": -0.074}, {"sequence": "ACCGCGAG", "PBM E-score": 0.166}, {"sequence": "TTAGTAAA", "PBM E-score": -0.0123}, {"sequence": "AGGGGATG", "PBM E-score": -0.0735}, {"sequence": "AAGTAGGC", "PBM E-score": -0.0906}, {"sequence": "AGATGCCG", "PBM E-score": 0.0534}, {"sequence": "ACGATGGA", "PBM E-score": 0.119}, {"sequence": "AGCATAGG", "PBM E-score": -0.027}, {"sequence": "CGGATATC", "PBM E-score": 0.109}, {"sequence": "ATAGTCGA", "PBM E-score": 0.129}, {"sequence": "ACACTAGA", "PBM E-score": -0.0837}, {"sequence": "CCCATGCA", "PBM E-score": 0.0934}, {"sequence": "TCTATAAA", "PBM E-score": -0.0823}, {"sequence": "CATCTTAC", "PBM E-score": -0.17}, {"sequence": "ACAACTAT", "PBM E-score": 0.0546}, {"sequence": "GCTATCCA", "PBM E-score": 0.0732}, {"sequence": "GCGGCAAC", "PBM E-score": 0.0844}, {"sequence": "ACATGCGA", "PBM E-score": -0.0174}, {"sequence": "CGTTAGAG", "PBM E-score": -0.188}, {"sequence": "ATGTGGTA", "PBM E-score": 0.181}, {"sequence": "GCGAGAGA", "PBM E-score": -0.0678}, {"sequence": "ACTGATCT", "PBM E-score": 0.126}, {"sequence": "GAGGACAC", "PBM E-score": -0.0901}, {"sequence": "ACCTCCAC", "PBM E-score": 0.0905}, {"sequence": "CCCTTTTA", "PBM E-score": -0.188}, {"sequence": "GCCATACC", "PBM E-score": -0.0635}, {"sequence": "CGGACTAG", "PBM E-score": -0.0809}, {"sequence": "TCGTCAGA", "PBM E-score": -0.097}, {"sequence": "AGGATAGG", "PBM E-score": 0.0866}, {"sequence": "GAGTTATA", "PBM E-score": 0.08}, {"sequence": "GGCGAGGA", "PBM E-score": -0.0974}, {"sequence": "CCCTTGCC", "PBM E-score": 0.0782}, {"sequence": "GATTTTGC", "PBM E-score": -0.195}, {"sequence": "GCGACACC", "PBM E-score": -0.0564}, {"sequence": "ACCCCTTC", "PBM E-score": -0.0736}, {"sequence": "CATCGCCG", "PBM E-score": 0.0559}, {"sequence": "CCACCGGC", "PBM E-score": 0.001}, {"sequence": "CGTCTTTA", "PBM E-score": -0.0165}, {"sequence": "CAGCACTC", "PBM E-score": 0.128}, {"sequence": "ATCGGGTC", "PBM E-score": 0.0603}, {"sequence": "ATTCTTAA", "PBM E-score": -0.232}, {"sequence": "CCGGGAAC", "PBM E-score": 0.00388}, {"sequence": "ATTAGCAC", "PBM E-score": -0.03}, {"sequence": "GGACTGCC", "PBM E-score": -0.108}, {"sequence": "GGACTATA", "PBM E-score": 0.0737}, {"sequence": "AGGTACCG", "PBM E-score": -0.0235}, {"sequence": "CGAATTGC", "PBM E-score": -0.215}, {"sequence": "TCGCGGAA", "PBM E-score": -0.143}, {"sequence": "GAATCTGC", "PBM E-score": 0.0309}, {"sequence": "CTACCCCC", "PBM E-score": -0.128}, {"sequence": "GAGCCGCA", "PBM E-score": 0.0451}, {"sequence": "CCGACCGA", "PBM E-score": -0.0804}, {"sequence": "CCGACTCC", "PBM E-score": 0.45}, {"sequence": "GGTAATCA", "PBM E-score": 0.288}, {"sequence": "CTTGCGTC", "PBM E-score": -0.0324}, {"sequence": "TAAAAGGA", "PBM E-score": -0.167}, {"sequence": "GACGTGGA", "PBM E-score": -0.0505}, {"sequence": "AAGTAGCC", "PBM E-score": -0.186}, {"sequence": "AGAGAGAC", "PBM E-score": -0.0959}, {"sequence": "GCGAATTA", "PBM E-score": 0.103}, {"sequence": "GAGCTTGC", "PBM E-score": -0.191}, {"sequence": "ACAATTGG", "PBM E-score": 0.0402}, {"sequence": "AACATTTC", "PBM E-score": -0.213}, {"sequence": "ACAGCGCA", "PBM E-score": 0.118}, {"sequence": "ATCCGGCG", "PBM E-score": 0.00355}, {"sequence": "ATACGGAT", "PBM E-score": 0.0703}, {"sequence": "AAATCCAT", "PBM E-score": 0.131}, {"sequence": "AGCTACAG", "PBM E-score": -0.0261}, {"sequence": "ATGTGAAT", "PBM E-score": 0.101}, {"sequence": "AGTTTACA", "PBM E-score": 0.00012}, {"sequence": "AAAGAAGC", "PBM E-score": -0.271}, {"sequence": "CCTCCTTC", "PBM E-score": -0.09}, {"sequence": "CCAAGCGC", "PBM E-score": 0.0989}, {"sequence": "GGCTCTAC", "PBM E-score": -0.0583}, {"sequence": "TAAGACAA", "PBM E-score": -0.136}, {"sequence": "CATAATTA", "PBM E-score": 0.16}, {"sequence": "CTCCGAGC", "PBM E-score": 0.179}, {"sequence": "AAGATGTA", "PBM E-score": 0.0228}, {"sequence": "ACGGGTTC", "PBM E-score": 0.0689}, {"sequence": "ACCCTAAT", "PBM E-score": -0.0655}, {"sequence": "GACGGTGA", "PBM E-score": 0.1}, {"sequence": "CGTAGAGC", "PBM E-score": -0.17}, {"sequence": "CCATTCGA", "PBM E-score": -0.172}, {"sequence": "GCAACCAA", "PBM E-score": 0.163}, {"sequence": "CTTCCCAC", "PBM E-score": -0.0689}, {"sequence": "GGAACACC", "PBM E-score": -0.0425}, {"sequence": "AGAACTAA", "PBM E-score": -0.0237}, {"sequence": "ATCGACGG", "PBM E-score": 0.0804}, {"sequence": "GACCCTCC", "PBM E-score": 0.123}, {"sequence": "TCAACGCA", "PBM E-score": 0.0501}, {"sequence": "ATGATTTA", "PBM E-score": 0.295}, {"sequence": "ACACCGAC", "PBM E-score": 0.109}, {"sequence": "GGCAAATA", "PBM E-score": -0.217}, {"sequence": "CATCGGGA", "PBM E-score": 0.167}, {"sequence": "CAGGAGGG", "PBM E-score": 0.00314}]}]}
